Some of the results follow.
Tests used:
HSkMC = human skeletal muscle cells; experiment: cytotoxicity call (relative viability < 0.9); settings: 10 µM
HepG2 = experiment: cytotoxicity call (relative viability < 0.9); settings: 10 µM
S. aureus RN4220 = experiment: growth inhibition call (relative growth <= 0.2); settings: 50 µM

SMILES | cytotoxicity call (HSkMC) | cytotoxicity call (HepG2) | growth inhibition call (S. aureus RN4220)
Cc1ccc(S(=O)(=O)Nc2cccc3c2O[C@@H](CN(C)C(=O)Nc2cccc4ccccc24)[C@H](C)CN([C@H](C)CO)C3=O)cc1 | inactive | inactive | inactive
C[C@@H]1CN([C@H](C)CO)S(=O)(=O)c2ccc(-c3cncnc3)cc2O[C@H]1CN(C)C(=O)Cc1cccnc1 | inactive | inactive | inactive
CCCCCOC(=O)Nc1nc(=O)n(C2OC(C)C(O)C2O)cc1F (stereo not drawn) | inactive | inactive | inactive
COc1cccc(S(=O)(=O)Nc2ccc3c(c2)[C@@H]2C[C@@H](CC(=O)NC4CCCCC4)O[C@H](CO)[C@@H]2O3)c1 | inactive | inactive | inactive
CN1C(=O)c2cc(NC(=O)C3CCC3)ccc2OC[C@H]2O[C@@H](CC(=O)NCCc3ccncc3)CC[C@@H]21 | inactive | inactive | inactive
NNC(=O)[C@@H](O)c1ccccc1 | inactive | inactive | inactive
CC(C)CC#Cc1cnc2c(c1)C(=O)N([C@H](C)CO)C[C@@H](C)[C@@H](CN(C)S(=O)(=O)c1ccccc1)O2 | inactive | inactive | inactive
C[C@@H]1CN([C@@H](C)CO)C(=O)c2cc(NC(=O)Cc3ccccc3)ccc2O[C@@H](C)CCCCO[C@@H]1CN(C)C(=O)Nc1ccc2c(c1)OCO2 | inactive | inactive | inactive
Cc1noc(C)c1S(=O)(=O)Nc1ccc2c(c1)CC(=O)N([C@H](C)CO)C[C@H](C)[C@H](CN(C)S(=O)(=O)c1ccc(F)cc1)O2 | inactive | inactive | inactive
C[C@@H]1CCCCO[C@H](CN(C)C(=O)c2ccccc2)[C@H](C)CN([C@@H](C)CO)C(=O)c2cc(NC(=O)Nc3ccccc3)ccc2O1 | inactive | inactive | inactive
Cc1noc(C)c1NC(=O)N(C)C[C@H]1OCCCC[C@@H](C)Oc2ccc(NS(=O)(=O)c3cccs3)cc2C(=O)N([C@H](C)CO)C[C@@H]1C | inactive | inactive | inactive
CCNC(=O)C[C@@H]1CC[C@@H]2[C@H](COC[C@H](O)CN2C(=O)Nc2c(C)noc2C)O1 | inactive | inactive | inactive
COc1ccc(S(=O)(=O)Nc2ccc3c(c2)C(=O)N([C@@H](C)CO)C[C@@H](C)[C@H](CN(C)S(=O)(=O)c2ccc(F)cc2)O3)cc1 | inactive | inactive | inactive
C[C@@H]1CN([C@@H](C)CO)C(=O)c2c(c3ccccc3n2C)-c2ccccc2CO[C@H]1CN(C)S(=O)(=O)c1cn(C)cn1 | inactive | inactive | inactive
COC(=O)Cn1c(Cl)nc2c1c(=O)n(C)c(=O)n2C | inactive | inactive | inactive
Cc1c(CN2CCC(Nc3ncnc4sc(CC(F)(F)F)cc34)CC2)ccc2c1cc(C#N)n2Cc1cn[nH]c1 | active | active | inactive
O=C(O)CN(CCN(CC(=O)O)CC(=O)O)CCN(CC(=O)O)CC(=O)O | inactive | inactive | inactive
C[C@H](CO)N1C[C@H](C)[C@@H](CN(C)C(=O)Nc2ccc(F)cc2)OCCCC[C@H](C)Oc2ccc(NC(=O)Cc3ccccc3)cc2C1=O | inactive | inactive | inactive
CC(C)NC(=O)N(C)C[C@@H]1Oc2c(NC(=O)NC3CCCCC3)cccc2C(=O)N([C@H](C)CO)C[C@H]1C | inactive | inactive | inactive
C[C@H]1CN([C@@H](C)CO)C(=O)c2cc(NC(=O)CCN3CCOCC3)ccc2O[C@H]1CN(C)Cc1ccccc1 | inactive | inactive | inactive
Cc1noc(C)c1S(=O)(=O)Nc1cccc2c1O[C@H](CN(C)CC1CC1)[C@H](C)CN([C@H](C)CO)C2=O | inactive | inactive | inactive
C[C@H](CO)N1C[C@H](C)[C@H](CN(C)C(=O)Nc2ccc(C(F)(F)F)cc2)Oc2ccc(NC(=O)CCCCCC(=O)Nc3ccccc3N)cc2CC1=O | inactive | inactive | inactive
COc1ccc(NC(=O)N(C)C[C@H]2Oc3ccc(NC(=O)CCCCCC(=O)Nc4ccccc4N)cc3C(=O)N([C@H](C)CO)C[C@H]2C)cc1 | inactive | inactive | inactive
c1ccc(NC2CCCCC2)nc1 | inactive | inactive | inactive
COc1ccccc1C#Cc1ccc2c(c1)O[C@H](CN(C)Cc1cccnc1)[C@@H](C)CN([C@@H](C)CO)S2(=O)=O | active | inactive | inactive
Cc1ccc(S(=O)(=O)N(C)C[C@@H]2Oc3ccc(NC(=O)CCN4CCOCC4)cc3C(=O)N([C@H](C)CO)C[C@H]2C)cc1 | inactive | inactive | inactive

From the antibiotic and cytotoxicity screens of Wong et al. (2023)
